# This is one part of the list.
# How the values were obtained:
# HSkMC = human skeletal muscle cells; experiment: cytotoxicity call (relative viability < 0.9); settings: 10 µM
# HepG2 = experiment: cytotoxicity call (relative viability < 0.9); settings: 10 µM
# S. aureus RN4220 = experiment: growth inhibition call (relative growth <= 0.2); settings: 50 µM
Structure (SMILES),cytotoxicity call (HSkMC),cytotoxicity call (HepG2),growth inhibition call (S. aureus RN4220)
C[C@@H]1CN([C@@H](C)CO)C(=O)c2cc(C#Cc3ccccc3)cnc2O[C@@H]1CN(C)C(=O)CCN1CCCCC1,inactive,inactive,inactive
CC#CCCC(=O)O,inactive,inactive,inactive
C[C@@H]1CCCCO[C@@H](CN(C)Cc2ccc(C(=O)O)cc2)[C@@H](C)CN([C@H](C)CO)C(=O)c2cc(NS(=O)(=O)c3ccc(F)cc3)ccc2O1,inactive,inactive,inactive
Cc1ccc(S(=O)(=O)Nc2ccc3c(c2)C(=O)N([C@@H](C)CO)C[C@@H](C)[C@@H](CN(C)Cc2ccncc2)OCCCC[C@H](C)O3)cc1,inactive,inactive,inactive
C[C@@H]1CN([C@H](C)CO)C(=O)Cc2cc(NC(=O)Nc3ccc(C(F)(F)F)cc3)ccc2O[C@@H]1CN(C)S(=O)(=O)c1ccc(Cl)cc1,active,active,inactive
C[C@@H]1CN([C@@H](C)CO)C(=O)Cc2cc(NC(=O)NC3CCCCC3)ccc2O[C@H]1CN(C)S(=O)(=O)c1cn(C)cn1,inactive,inactive,inactive
C[C@H]1CN([C@@H](C)CO)C(=O)c2cc(NC(=O)CCCN(C)C)ccc2O[C@H]1CN(C)C(=O)Nc1ccccc1,inactive,inactive,inactive
COCC(=O)Nc1ccc2c(c1)C(=O)N(C)[C@@H]1CC[C@@H](CC(=O)NCc3ccccc3Cl)O[C@H]1CO2,inactive,inactive,inactive
O=C(C[C@@H]1C=C[C@@H](NC(=O)C2CC2)[C@@H](CO)O1)NCCCN1CCOCC1,inactive,inactive,inactive
COc1ccc(-c2ccccc2)cc1NC(=O)c1ccc2nc(C)c(N(C)C(=O)CCc3ccccc3)n2c1,inactive,inactive,inactive
C[C@@H](O)C#Cc1ccc2c(c1)O[C@@H](CN(C)C(=O)Nc1ccccc1)[C@@H](C)CN([C@@H](C)CO)S2(=O)=O,inactive,inactive,inactive
C[C@H]1CN([C@@H](C)CO)C(=O)Cc2cc(NC(=O)Nc3ccc(C(F)(F)F)cc3)ccc2O[C@@H]1CN(C)C(=O)Nc1cccc2ccccc12,inactive,inactive,inactive
CO[C@H]1CN(C)C(=O)c2ccc(NS(C)(=O)=O)cc2OC[C@H](C)N(C(=O)C2CCCCC2)C[C@@H]1C,inactive,inactive,inactive
C[C@H]1CN([C@@H](C)CO)C(=O)c2cc(NC(=O)Nc3ccc(C(F)(F)F)cc3)ccc2O[C@H]1CN(C)Cc1ccc(C(=O)Nc2ccccc2N)cc1,active,inactive,inactive
COc1ccc(NC(=O)N(C)C[C@@H]2OCCCC[C@@H](C)Oc3ccc(NS(=O)(=O)c4ccc(C)cc4)cc3C(=O)N([C@@H](C)CO)C[C@H]2C)cc1,inactive,inactive,inactive
C[C@@H]1CN([C@H](C)CO)C(=O)Cc2cc(NC(=O)c3ccncc3)ccc2O[C@@H]1CN(C)Cc1ccc(C(=O)O)cc1,inactive,inactive,inactive
C[C@@H]1CCCCO[C@H](CN(C)Cc2ccc(Cl)c(Cl)c2)[C@H](C)CN([C@@H](C)CO)C(=O)c2cc(NC(=O)CCC(F)(F)F)ccc2O1,inactive,active,inactive
C[C@@H]1CCCCO[C@H](CN(C)S(=O)(=O)c2cccs2)[C@H](C)CN([C@@H](C)CO)C(=O)c2cc(NS(=O)(=O)c3ccc(Cl)cc3)ccc2O1,inactive,active,inactive
C[C@@H]1CN([C@@H](C)CO)C(=O)c2cccc(NC(=O)C3CCOCC3)c2O[C@@H]1CN(C)Cc1ccc(Oc2ccccc2)cc1,inactive,inactive,inactive
O=C(C[C@H]1C=C[C@H](NC(=O)c2cccnc2)[C@H](CO)O1)NCc1ccncn1,inactive,inactive,inactive
COc1ccc(NC(=O)Nc2ccc3c(c2)C(=O)N([C@@H](C)CO)C[C@H](C)[C@H](CN(C)C(=O)Nc2ccc(F)cc2)OCCCC[C@H](C)O3)cc1,inactive,inactive,inactive
Cc1noc(C)c1S(=O)(=O)Nc1ccc2c(c1)C(=O)N([C@H](C)CO)C[C@H](C)[C@H](CN(C)C(=O)NC1CCCCC1)O2,inactive,inactive,inactive
Cn1cncc1CO,inactive,inactive,inactive
Cc1noc(C)c1NC(=O)N(C)C[C@H]1Oc2ccc(NC(=O)C3CC3)cc2CC(=O)N([C@@H](C)CO)C[C@H]1C,inactive,inactive,inactive
NC(=O)c1cc[n+](CC2=C(C(=O)[O-])N3C(=O)C(NC(=O)Cc4cccs4)C3SC2)cc1 (stereo not given),inactive,inactive,active
